How the values were obtained:
[1] = tested on: human lung cancer cell line NCI-H1975; test: In vitro killing activity, cell proliferation inhibition method using CCK-8; assay type: cell-based; conditions: NCI-H1975, L858R/T790M; mean of two 96-well plates; ND = highest proliferation inhibition % less than 50%
[2] = tested on: human lung cancer cell line NCI-H1650; test: as above; assay type: cell-based; conditions: NCI-H1650, DelE746-A750; mean of two 96-well plates; ND = highest proliferation inhibition % less than 50%
[3] = tested on: human lung cancer PDX model LUN #2210-106; test: Efficacy of MYK-3, AK103 and their combination in human lung cancer PDX model LUN #2210-106 in Hu-HSC-NPG mice; assay type: in vivo
Method: LUN #2210-106 is an AZD9291-resistant human adenosquamous carcinoma of the lung PDX model. This experiment was performed in total of 4 groups, including a Vehicle group (ADC-3 vehicle), an ADC-3 administration group (1 mg/kg), an AK103 administration group (5 mg/kg), and an ADC-3 (1 mg/kg)+AK103 (5 mg/kg) administration group. During the entire experiment, ADC-3 was administered three times in total for the ADC-3 single-drug administration group, via tail vein injection on Day 0, Day 4, and Day 8; and AK103 was administered every three days via tail vein injection for the AK103 single-drug administration group, 8 times in total. For the ADC-3+AK103 administration group, ADC-3 was administered three times, and AK103 was administered ten times in total, and their administration modes were the same as those for the single-drug administration groups. The experiment period was 34 days. […] During the period from Day 20 to Day 34, the mean tumor volume of animals in the ADC-3 (1 mg/kg) administration group gradually resumed growth (from 184 mm^3 to 893 mm^3); the mean tumor volume of animals in the ADC-3 (1 mg/kg)+AK103 (5 mg/kg) administration group grew slowly (from 38 mm^3 to 126 mm^3), and on Day 34, complete tumor regression was still observed in 1 out of 6 animals.

B1: MYK-3: ADC of anti-EGFR monoclonal antibody BA03 and MMAE via MC-vc-PAB (vc) linker; average DAR 4.1 (conjugate)
heavy: QVQLQESGPGLVKPSETLSLTCTVSGFSLSNYDVHWVRQAPGKGLEWLGVIWSGGNTDYNTPFTSRLTISVDTSKNQFSLKLSSVTAADTAVYYCARALDYYDYEFAYWGQGTLVTVSSASTKGPSVFPLAPSSKSTSGGTAALGCLVKDYFPEPVTVSWNSGALTSGVHTFPAVLQSSGLYSLSSVVTVPSSSLGTQTYICNVNHKPSNTKVDKRV[skipping human IgG1 Fc]
light: EIVLTQSPDFQSVTPKEKVTITCRASQSIGTNIHWYQQKPDQSPKLLIKYASESISGIPSRFSGSGSGTDFTLTINSLEAEDAATYYCQQNNEWPTSFGQGTKLEIKRTVAAPSVFIFPPSDEQLKSGTASVVCLLNNFYPREAKVQWKVDNALQSGNSQESVTEQDSKDSTYSLSSTLTLSKADYEKHKVYACEVTHQGLSSPVTKSFNRGEC
- IC50 (Mean ± SD, ng/mL) [1]: 3.0 ± 0.7 ng/mL
- IC50 (Mean ± SD, ng/mL) [2]: 3000 ± 790 ng/mL
- Tumor growth inhibition rate TGI % ([3]; 1 mg/kg i.v. q4d × 3, Day 20): 86.69%
- Tumor inhibition activity ([3]; 1 mg/kg, Day 20): +++ (T/C (%) >10% and ≤20%)
- mean tumor volume ([3]; 1 mg/kg, Day 20): 184 mm^3
- mean tumor volume ([3]; 1 mg/kg, Day 34): 893 mm^3

From patent US20250135021A1, “USE OF ANTIBODY-DRUG CONJUGATE, AND COMBINED DRUG AND USE THEREOF” (SHANGHAI MIRACOGEN INC., priority 2021, published 2025)
